Measured values: US12274703B2, “Compositions and methods of treatment for neurological disorders comprising a dementia” (Gliapharm SA, priority 2017, dated 2025)
The name of at least one read-out is uncertain.

Key:
primary astrocytes = assay: High throughput screening for lactate secretion: acidification of extracellular medium (SNARF5); assay type: cell-based, mouse; parameters: key: fraction of positive control activity (positive control = 100%); details: Appendix I; primary screening confirmation (SNARF5)
Experimental: (§1) Primary cultures of cerebrocortical astrocytes were obtained from 1-2-day-old OF1 mouse pups (Charles River Laboratories). Briefly, cortices were isolated and minced in small pieces under a dissecting microscope. The cells were incubated for 30 min at 37° C. in a solution containing 20 U/ml of papain enzyme (Worthington Biochemical), L-cysteine 1 mM (Sigma), and 10 kU/ml DNase I (Worthington Biochemical) for an enzymatic dissociation. Papain activity was stopped by the addition of fetal calf serum (FCS) to the solution, and a single-cell suspension was then obtained by mechanical dissociation, which consisted in cells trituration in a DMEM (D7777, Sigma-Aldrich) medium (supplemented with 44 mm NaHCO3, and 10 ml/L antibiotic/antimycotic solution) containing 10% FCS. The cells were seeded at an average density of 6×10^4 cells/cm^2 in poly-D-lysine-coated 96, 12 or 6-well culture plates, depending on their use, and incubated at 37° C. in a humidified atmosphere containing 5% CO2/95% air. Culture medium was renewed twice per week. Cells were stimulated and harvested between DIV14 and DIV17, when confluence and cell growth were optimal.
Secretion of lactate in a high-throughput screening (HTS) fashion was measured indirectly through the acidification of extracellular medium. To this end, primary astrocytes grown in 96-well plates for 17 days were stimulated with the compounds as listed herein.
After washing the cells twice with stimulation medium (DMEM (D5030, Sigma), 3 mM NaHCO3 and 5 mM Glucose) at 37° C., cells were stimulated with the compounds at a final concentration of 10 uM (1% DMSO final) in 50 ul per well of stimulation medium supplemented with 10 uM of the extracellular pH sensor SNARF-5F %-(AND-6)-CAR (Life Technologies Corporation). Each compound was tested in two different plates for duplicates.
After 90 min stimulation, fluorescence was read at exc. (excitation) 480 nm/emm. (emission) 580 nm and at exc 480 nm/emm. 630 nm. The ratio of fluorescence between 630 nm and 580 emission values, which represents extracellular pH, was calculated.
In each plate, 8 wells were used for negative controls (DMSO) and 8 wells were used for positive controls (CCCP 2 uM in DMSO). Z prime values were calculated for each of the plates tested and values <0 were discarded.
The average and SD of compounds' values tested in duplicates were calculated, and compound was noted as HIT when the difference between compound's average and negative control's average was greater than three times the sum of compound's SD and negative controls' SD. Only scores greater than 40% were considered as lead hits for the CDC54K library; for the remaining libraries, all hits were considered. Scores are calculated as the % of activity compared to the positive control in each plate (which is 100%).
Primary screening hits were cherry picked on new plates and confirmed for SNARF5 effect, after having discarded those compounds that are fluorescent (exc. 480 nm/emm. 580 nm or 630 nm) before stimulation. Extracellular medium was next analyzed for extracellular lactate quantification for secondary screening.
Identification of lactate-enhancing drugs with high throughput screening (HTS) experiments on astrocytes primary cultures using extracellular pH dye (SNARF5F 5-(and 6)-carboxylic acid) for 90 min. The procedure is described in Material and Methods (2. Cell culture, 2.1. HTS for lactate secretion and 2.2. Extracellular lactate quantification).
The procedure was performed as follows: • Primary screening: acidification of the extracellular medium • Primary screening confirmation: acidification of the extracellular medium, removal of compounds with fluorescent activity at exc. 480 nm/emm. 580 nm or 630 nm. • Secondary screening: dosage of extracellular lactate

astrocytes = assay: Extracellular lactate quantification; assay type: cell-based, mouse; details: Appendix I; secondary screening, dosage of extracellular lactate
Experimental: as §1
Secretion of L-lactate was determined in the extracellular medium of 96-well plated astrocytes after 90 min stimulation (at 37° C., in 5% CO2/95% air conditions) with the drug of interest. The stimulation medium was composed of D5030 medium (completed with D-glucose 5 mM and 44 mM sodium bicarbonate) for 90 min in concentrations ranging from 0 to 100 μM.
Briefly, 200 μl of a Glycine (Sigma)-Semicarbazide (Acros) 0.2M pH 10 buffer containing 3 mM NAD (Roche) and LDH 14 U/ml (Roche) was added to each well of a 96-well plate containing 30 μl aliquots complemented with 20 μl fresh complete D5030 medium. Samples were incubated at 37° C. for 1 h. After samples cooled down at room temperature, the fluorescence intensity (340 nm excitation/450 nm emission) that represents the amount of NADH produced was measured, and lactate concentration values were determined from a standard curve of L-lactate.
Statistical analysis consisted in ANOVA followed by Fisher LSD post-hoc test for pair-wise comparisons.
Levels of lactate secreted by astrocytes were measured in the extracellular medium at 90 min after stimulation with hits (molecules) from the CDC54K library.

SMILES | Score_SNARF (primary astrocytes) | Score_LACTATE (astrocytes)
CCc1ccc(S(=O)(=O)N2CCSC2c2ccc(OC)c(OC)c2)cc1 (stereo not shown) [4052-4304] | 0.4491 | 0.4335
Cc1oc2ncnc(N3CCCC(C(=O)NCc4ccccn4)C3)c2c1C (stereo not shown) [F228-0350] | 1.011 | 1.023
Cc1oc2ncnc(N3CCCC(C(=O)NCc4cccnc4)C3)c2c1C (stereo not shown) [F228-0351] | 0.82 | 0.8985
Cc1oc2ncnc(N3CCCC(C(=O)NCc4ccccc4)C3)c2c1C (stereo not shown) [F228-0365] | 0.9429 | 0.9001
CCNC(=O)C1CCCN(c2ncnc3oc(C)c(C)c23)C1 (stereo not shown) [F228-0534] | 0.5203 | 0.3387
CNC(=O)C1CCCN(c2ncnc3oc(C)c(C)c23)C1 (stereo not shown) [F228-0541] | 0.3609 | 0
Cc1nc(N2CCCC(C(=O)NCc3cccnc3)C2)c2c(C)c(C)oc2n1 (stereo not shown) [F228-0856] | 0 | 0
COc1ccc(Cl)cc1S(=O)(=O)NCc1ccncc1 [F0376-0203] | 0 | 0
Cc1cccc([N+]2=C3SCCCN3C(O)(c3ccc(Cl)cc3)C2)c1.[Br-] (stereo not shown) [F0522-0533] | 0.4705 | 0
COc1ccccc1[N+]1=C2CCCCN2C(O)(c2ccc(F)cc2)C1.[Br-] (stereo not shown) [F0524-0338] | 0.634 | 1.585
OC1(c2ccccc2)C[N+](c2ccc(Cl)cc2)=C2CCCCN21.[Br-] (stereo not shown) [F0524-0488] | 0.3489 | 0
COc1ccc(C2(O)C[N+](c3ccccc3C)=C3CCCCN32)cc1.[Br-] (stereo not shown) [F0524-0507] | 0.4491 | 0
CCOc1ccc(C2(O)C[N+](c3ccccc3C)=C3CCCCN32)cc1.[Br-] (stereo not shown) [F0524-0511] | 0.5555 | 0
COc1ccccc1[N+]1=C2CCCCCN2C(O)(c2ccc(F)cc2)C1.[Br-] (stereo not shown) [F0524-0611] | 0.5954 | 1.547
COc1ccc(C2SCCN2S(=O)(=O)c2ccc(C)c(C)c2)cc1OC (stereo not shown) [F1462-0491] | 0 | 0
COc1ccccc1Nc1nc(N2CCOCC2)c2ccccc2n1.Cl [F3007-0009] | 0 | 0
CC(=O)N1CCCc2cc(S(=O)(=O)NCc3ccccc3)ccc21 [G855-0210] | 0.3123 | 0
COc1ccc(C2(O)C[N+](c3cc(C)ccc3C)=C3SCCCN32)c(F)c1 (stereo not shown) [K404-0183] | 0 | 0
Cc1cccc([N+]2=C3SCCCN3C(O)(c3ccc(F)cc3)C2)c1 (stereo not shown) [K404-0394] | 0.3309 | 0.4429
CCc1ccc(C2(O)C[N+](c3ccccc3OC)=C3CCCCN32)cc1 (stereo not shown) [K404-0672] | 1.014 | 1.356
CCOc1ccc(C2(O)C[N+](c3ccccc3OC)=C3CCCCN32)cc1 (stereo not shown) [K404-0673] | 0.9751 | 2.024
Cc1cccc([N+]2=C3CCCCN3C(O)(c3ccc(F)cc3)C2)c1C (stereo not shown) [K404-0685] | 0.6562 | 0.6821
Cc1ccc(C)c([N+]2=C3CCCCN3C(O)(c3ccc(F)cc3)C2)c1 (stereo not shown) [K404-0697] | 0.5123 | 0.6526
COc1ccc(C2(O)C[N+](c3cccc(C)c3)=C3CCCCN32)cc1 (stereo not shown) [K404-0796] | 0.6402 | 0

SMILES | Score_SNARF (primary astrocytes) | Score_LACTATE (astrocytes)
Cc1cccc([N+]2=C3CCCCN3C(O)(c3ccc(Cl)cc3)C2)c1 (stereo not shown) [K404-0800] | 0.7386 | 0.8385
COc1ccccc1[N+]1=C2CCCCCN2C(O)(c2ccc(C)cc2)C1 (stereo not shown) [K404-0834] | 1.022 | 1.613
COc1ccccc1[N+]1=C2CCCCCN2C(O)(c2ccccc2)C1 (stereo not shown) [K404-0838] | 0.8328 | 1.051
COc1ccccc1[N+]1=C2CCCCCN2C(O)(c2cccc([N+](=O)O)c2)C1 (stereo not shown) [K404-0842] | 0.2022 | 0
COc1ccc(OC)c([N+]2=C3CCCCCN3C(O)(c3ccc(C)cc3)C2)c1 (stereo not shown) [K404-0855] | 0.4944 | 0.6277
CCOc1ccc(C2(O)C[N+](c3cc(OC)ccc3OC)=C3CCCCCN32)cc1 (stereo not shown) [K404-0860] | 0.6137 | 0.4766
COc1ccc(C2(O)C[N+](c3ccccc3C)=C3CCCCCN32)cc1OC (stereo not shown) [K404-0906] | 0 | 0
Cc1cccc([N+]2=C3CCCCCN3C(O)(c3ccc(F)cc3)C2)c1 (stereo not shown) [K404-0910] | 0.5878 | 0.6219
COc1ccccc1NC(=O)Cc1nn(C)c(=O)c2ccccc12 [K851-0113] | 0.7569 | 0.9281
Cc1cccc(NS(=O)(=O)c2cc(-c3noc(C)n3)cs2)c1 [L287-0220] | 0.5829 | 1.578
O=S(=O)(NC1CCCC1)c1cc(-c2noc(C3CCC3)n2)cs1 [L287-1221] | 0.5995 | 0.6602
CC(=O)c1ccc(NS(=O)(=O)c2cc(-c3noc(C4CCCC4)n3)cs2)cc1 [L287-1577] | 1.059 | 1.215
Cc1ccc(CNS(=O)(=O)c2cc(-c3noc(C4CCCC4)n3)cs2)cc1 [L287-1641] | 0.626 | 0.8035
Cn1nccc1-c1csc(S(=O)(=O)Nc2ccc(F)cc2)c1 [L924-0760] | 0.7695 | 0.7898
COc1ccc(C)cc1NS(=O)(=O)c1cc(-c2ccnn2C)cs1 [L924-0830] | 0.7153 | 0.9168
Cc1cccc(NS(=O)(=O)c2cc(-c3ccnn3C)cs2)c1 [L924-0884] | 0.7507 | 0.7362
CCn1nccc1-c1csc(S(=O)(=O)Nc2cc(C)ccc2C)c1 [L924-0988] | 0.6652 | 0.6139
CCn1nccc1-c1csc(S(=O)(=O)Nc2ccccc2OC)c1 [L924-1088] | 0.8835 | 0.9106
O=C(c1noc2ccc(S(=O)(=O)Nc3cccc(F)c3)cc12)N1CCCC1 [L995-0058] | 0.4197 | 0.424
Cc1ccccc1NS(=O)(=O)c1ccc2onc(C(=O)N3CCCCC3)c2c1 [L995-0405] | 0.3724 | 0
O=C(c1ccco1)N1CCCn2nc(-c3ccc(C(F)(F)F)cc3)cc2C1 [T200-0370] | 0.3804 | 0.2896
COc1cccc(-c2cc3n(n2)CCCN(Cc2ccncc2)C3)c1 [T202-0973] | 0.2834 | 0
Fc1ccc(-c2cc3n(n2)CCCN(Cc2ccncc2)C3)cc1 [T202-1455] | 0.7839 | 0.6933
